Consider 34 molecules from US12043670B2, “Anti-BCMA antibody-drug conjugates and methods of use” (Eisai R&D Management Co., Ltd., priority 2020, dated 2024).

Positions count from the first letter of the chain named.

To fix the notation:
B1: AB200-(2Vk8)_R2-CDR2-hs-v2 (antibody)
heavy: QVQLVQSGAEVKKPGSSVKVSCKASGGSFSNYWIHWVRQAPGQGLEWMGGIIPIFGTANYAQKFQGRVTITADKSTSTAYMELSSLRSEDTAVYYCARGAIFHGYDVIDNWGQGTLVTVSSASTKGPSVFPLAPSSKSTSGGTAALGCLVKDYFPEPVTVSWNSGALTSGVHTFPAVLQSSGLYSLSSVVTVPSSSLGTQTYICNVNHKPSNTKVDKKVEPKSC
light: DIQMTQSPSSLSASVGDRVTITCRASQSISSYINWYQQKPGKAPKLLIYATSNLQIGVPSRFSGSGSGTDFTLTISSLQPEDFATYYCQQFRKLPWSFGQGTKLEIKRTVAAPSVFIFPPSDEQLKSGTASVVCLLNNFYPREAKVQWKVDNALQSGNSQESVTEQDSKDSTYSLSSTLTLSKADYEKHKVYACEVTHQGLSSPVTKSFNRGEC
B2: AB200-(2Vk31)_R2-VH-v21 (antibody)
heavy: QVQLVQSGAEVKKPGSSVKVSCKASGGTFSNYWIHWVRQAPGQGLEWMGGTYRSHSDTYYAQKFKSRVTITADKSTSTAYMELSSLRSEDTAVYYCARGAIFHGYDVIDNWGQGTLVTVSSASTKGPSVFPLAPSSKSTSGGTAALGCLVKDYFPEPVTVSWNSGALTSGVHTFPAVLQSSGLYSLSSVVTVPSSSLGTQTYICNVNHKPSNTKVDKKVEPKSC
light: B1 light with I33L, K93R, S97T
B3: AB200-(2Vk31)_R2-VH-v47 (antibody)
heavy: B2 heavy with F29Y, G50A, S54I, D57T, A61N, Q62E
light: B1 light with I33L, K93R, S97T
B4: AB200-(2Vk31)_R2-VH-v50 (antibody)
heavy: B2 heavy with F29Y, S54I, Y59N, A61N, F102Y, D109E
light: B1 light with I33L, K93R, S97T
B5: AB200-(2Vk31)_R2-VH-v34 (antibody)
heavy: B2 heavy with G50A, H55Q, F102Y, D109E
light: B1 light with I33L, K93R, S97T
B6: AB200-(2Vk31)_R2-VH-v29 (antibody)
heavy: B2 heavy with G50A, D57T, A61N, Q62E, F102Y, Y105F
light: B1 light with I33L, K93R, S97T
B7: AB200-(2Vk31)_R2-VH-v27 (antibody)
heavy: B2 heavy with G50A, H55Q, D57T, A61N, I101V, F102Y
light: B1 light with I33L, K93R, S97T
B8: AB200-(2Vk31)_R2-VH-v5 (antibody)
heavy: B2 heavy with S30T, A61N, Q62E
light: B1 light with I33L, K93R, S97T
B9: AB200-(2Vk31)_R2-VH-v25 (antibody)
heavy: B2 heavy with G50A, D57T, Y59N, A61N, F102Y, Y105F
light: B1 light with I33L, K93R, S97T
B10: AB200-(2Vk31)_R2-VH-v33 (antibody)
heavy: B2 heavy with G50A, Y59N, A61N, Q62E, F102Y, D109E
light: B1 light with I33L, K93R, S97T
B11: AB200-(2Vk31)_R2-VH-v42 (antibody)
heavy: B2 heavy with S30T, S54I, A61N, F64Y
light: B1 light with I33L, K93R, S97T
B12: AB200-(2Vk31)_R2-VH-v57 (antibody)
heavy: B2 heavy with S54I, D57T, A61N, K74E, I101V, F102Y
light: B1 light with I33L, K93R, S97T
B13: AB200-(2Vk31)_R2-VH-v3 (antibody)
heavy: B2 heavy with S30T, D57T, A61N, I101V, F102Y
light: B1 light with I33L, K93R, S97T
B14: AB200-(2Vk35)_R2-VH-v38 (antibody)
heavy: B2 heavy with G50A, H55Q, A61N, Q62E, F102Y, Y105F
light: B1 light with I56S, F91Y, K93R, L94I, S97T
B15: AB200-(2Vk35)_R2-VH-v56 (antibody)
heavy: B2 heavy with T28S, G50A, S54I, F64Y
light: B1 light with I56S, F91Y, K93R, L94I, S97T
B16: AB200-(2Vk35)_R2-VH-v15 (antibody)
heavy: B2 heavy with T28S, G50A, H55Q, D57T, A61N
light: B1 light with I56S, F91Y, K93R, L94I, S97T
B17: AB200-(2Vk35)_R2-VH-v62 (antibody)
heavy: B2 heavy with S54I, A61N, Q62E, F102Y, D109E
light: B1 light with I56S, F91Y, K93R, L94I, S97T
B18: AB200-(2Vk35)_R2-VH-v26 (antibody)
heavy: B2 heavy with G50A, D57T
light: B1 light with I56S, F91Y, K93R, L94I, S97T
B19: AB200-(2Vk35)_R2-VH-v48 (antibody)
heavy: B2 heavy with F29Y, S54I, D57T, A61N, F102Y, Y105F
light: B1 light with I56S, F91Y, K93R, L94I, S97T
B20: AB200-(2Vk35)_R2-VH-v11 (antibody)
heavy: B2 heavy with F29Y, G50A, Y59N, A61N, Q62E, I101V, F102Y
light: B1 light with I56S, F91Y, K93R, L94I, S97T
B21: AB200-(2Vk35)_R2-VH-v69 (antibody)
heavy: B2 heavy with G50A, S54I, H55Q, Y59N, A61N, I101V, F102Y
light: B1 light with I56S, F91Y, K93R, L94I, S97T
B22: AB200-(2Vk35)_R2-VH-v8 (antibody)
heavy: B2 heavy with F29Y, H55Q, A61N, F102Y, Y105F
light: B1 light with I56S, F91Y, K93R, L94I, S97T
B23: AB200-(2Vk35)_R2-VH-v63 (antibody)
heavy: B2 heavy with G50A, S54I, D57T, Y59N, A61N, K74E, I101V, F102Y
light: B1 light with I56S, F91Y, K93R, L94I, S97T
B24: AB200-(2Vk35)_R2-VH-v9 (antibody)
heavy: B2 heavy with F29Y, G50A, H55Q, Y59N, A61N, F102Y, Y105F
light: B1 light with I56S, F91Y, K93R, L94I, S97T
B25: AB200-(2Vk35)_R2-VH-v52 (antibody)
heavy: B2 heavy with T28S, G50A, S54I, H55Q
light: B1 light with I56S, F91Y, K93R, L94I, S97T
B26: AB200-(2Vk35)_R2-VH-v76 (antibody)
heavy: B2 heavy with G50A, S54I, H55Q, A61N, Q62E, F102Y, Y105F
light: B1 light with I56S, F91Y, K93R, L94I, S97T
B27: AB200-(2Vk35)_R2-VH-v6 (antibody)
heavy: B2 heavy with S30T, G50A, F64Y, I101V, F102Y
light: B1 light with I56S, F91Y, K93R, L94I, S97T
B28: AB200-(2Vk35)_R2-VH-v55 (antibody)
heavy: B2 heavy with T28S, G50A, S54I, D57T, A61N, F64Y, I101V, F102Y
light: B1 light with I56S, F91Y, K93R, L94I, S97T
B29: AB200-(2Vk35)_R2-VH-v46 (antibody)
heavy: B2 heavy with F29Y, G50A, S54I, H55Q, Y59N, A61N, F102Y, D109E
light: B1 light with I56S, F91Y, K93R, L94I, S97T
B30: AB200-(2Vk35)_R2-VH-v32 (antibody)
heavy: B2 heavy with G50A, Y59N, A61N, F64Y
light: B1 light with I56S, F91Y, K93R, L94I, S97T
B31: AB200-(2Vk35)_R2-VH-v36 (antibody)
heavy: B2 heavy with G50A, Q62E
light: B1 light with I56S, F91Y, K93R, L94I, S97T
B32: AB200-(2Vk35)_R2-VH-v49 (antibody)
heavy: B2 heavy with F29Y, G50A, S54I, H55Q, D57T, A61N, F102Y, D109E
light: B1 light with I56S, F91Y, K93R, L94I, S97T
B33: AB200-(2Vk44)_R2-VH-v72 (antibody)
heavy: B2 heavy with G50A, S54I, H55Q, I101V, F102Y
light: B1 light with F91Y, K93R
B34: AB200-(2Vk44)_R2-VH-v75 (antibody)
heavy: B2 heavy with G50A, S54I, H55Q, A61N, F64Y, I101V, F102Y
light: B1 light with F91Y, K93R

The nature of the first data set: ThermoFluor thermostability (Tm). Particulars: Fab fragment; heavy chain clone paired with light chain AB200-(2Vk8). Format: physicochemical. (In general: Differential scanning fluorimetry follows unfolding on heating by fluorescence.)
Turning to B1, the Tm worked out at 85.175 °C.

Staying with this data set, now noted: Fab fragment; heavy chain clone paired with light chain AB200-(2Vk31).
Regarding B2, the Tm was determined as 81.367 °C.

Turning to B3, the Tm is 82.826 °C.

As for B4, the Tm is 79.146 °C.

For the molecule B5, the Tm was 81.638 °C.

As for B6, the Tm stood at 85.764 °C.

B7: the Tm turned out to be 86.016 °C.

Consider B8, for which the Tm is 83.838 °C.

Consider B9, for which the Tm came out at 83.328 °C.

Turning to B10, the Tm stood at 81.852 °C.

For the molecule B11, the Tm was 81.487 °C.

Turning to B12, the Tm is 85.597 °C.

Consider B13, for which the Tm is 85.949 °C.

The same data set, now with this note: Fab fragment; heavy chain clone paired with light chain AB200-(2Vk35).
As for B14, the Tm was 81.457 °C.

Regarding B15, the Tm was determined as 77.030 °C.

On to B16, for which the Tm was 80.901 °C.

Turning to B17, the Tm was determined as 78.430 °C.

As for B18, the Tm came to 78.816 °C.

As to B19, the Tm was 78.848 °C.

As for B20, the Tm amounted to 77.406 °C.

Consider B21, for which the Tm came to 77.807 °C.

For the molecule B22, the Tm is 78.223 °C.

In the case of B23, the Tm was 80.226 °C.

With B24, the Tm came out at 76.997 °C.

Consider B25, for which the Tm turned out to be 76.770 °C.

For B26, the Tm was 79.284 °C.

Take B27: the Tm stood at 77.987 °C.

As for B28, the Tm is 80.450 °C.

Take B29: the Tm was 76.222 °C.

On to B30, for which the Tm worked out at 77.066 °C.

In the case of B31, the Tm was 78.599 °C.

With B32, the Tm came out at 79.187 °C.

The data set is the same for the next values; noted with them: Fab fragment; heavy chain clone paired with light chain AB200-(2Vk44).
In the case of B33, the Tm was 77.278 °C.

B34: the Tm worked out at 78.398 °C.
